The whole screen tested about 350,000 compounds, of which about 31,000 (8.9%) were called active. The inconclusive results got no clear call from the source; some entries with a clear call stand among them for comparison. Calls come from the whole dose curve; as a rule, active = well fitted inhibition curve with a large enough effect; inconclusive = small, poorly fitted or top-dose-only effect; inactive = no such curve, though single readings can be large or run the other way. Where the call is inconclusive, the potency comes from a doubtful curve fit.
target: Histone-lysine N-methyltransferase EHMT2 (Homo sapiens) (UniProt Q96KQ7); assay: qHTS Assay for Inhibitors of Histone Lysine Methyltransferase G9a; details: G9a H3K9 monomethylation, AlphaScreen, 2 h; activity, negative = inhibition: at 59 µM (top of the series) unless noted; note: nearly all actives have a fitted effect of over 75% in size
UniProt Q96KQ7, sequence (Q96KQ7 whole entry, looked up): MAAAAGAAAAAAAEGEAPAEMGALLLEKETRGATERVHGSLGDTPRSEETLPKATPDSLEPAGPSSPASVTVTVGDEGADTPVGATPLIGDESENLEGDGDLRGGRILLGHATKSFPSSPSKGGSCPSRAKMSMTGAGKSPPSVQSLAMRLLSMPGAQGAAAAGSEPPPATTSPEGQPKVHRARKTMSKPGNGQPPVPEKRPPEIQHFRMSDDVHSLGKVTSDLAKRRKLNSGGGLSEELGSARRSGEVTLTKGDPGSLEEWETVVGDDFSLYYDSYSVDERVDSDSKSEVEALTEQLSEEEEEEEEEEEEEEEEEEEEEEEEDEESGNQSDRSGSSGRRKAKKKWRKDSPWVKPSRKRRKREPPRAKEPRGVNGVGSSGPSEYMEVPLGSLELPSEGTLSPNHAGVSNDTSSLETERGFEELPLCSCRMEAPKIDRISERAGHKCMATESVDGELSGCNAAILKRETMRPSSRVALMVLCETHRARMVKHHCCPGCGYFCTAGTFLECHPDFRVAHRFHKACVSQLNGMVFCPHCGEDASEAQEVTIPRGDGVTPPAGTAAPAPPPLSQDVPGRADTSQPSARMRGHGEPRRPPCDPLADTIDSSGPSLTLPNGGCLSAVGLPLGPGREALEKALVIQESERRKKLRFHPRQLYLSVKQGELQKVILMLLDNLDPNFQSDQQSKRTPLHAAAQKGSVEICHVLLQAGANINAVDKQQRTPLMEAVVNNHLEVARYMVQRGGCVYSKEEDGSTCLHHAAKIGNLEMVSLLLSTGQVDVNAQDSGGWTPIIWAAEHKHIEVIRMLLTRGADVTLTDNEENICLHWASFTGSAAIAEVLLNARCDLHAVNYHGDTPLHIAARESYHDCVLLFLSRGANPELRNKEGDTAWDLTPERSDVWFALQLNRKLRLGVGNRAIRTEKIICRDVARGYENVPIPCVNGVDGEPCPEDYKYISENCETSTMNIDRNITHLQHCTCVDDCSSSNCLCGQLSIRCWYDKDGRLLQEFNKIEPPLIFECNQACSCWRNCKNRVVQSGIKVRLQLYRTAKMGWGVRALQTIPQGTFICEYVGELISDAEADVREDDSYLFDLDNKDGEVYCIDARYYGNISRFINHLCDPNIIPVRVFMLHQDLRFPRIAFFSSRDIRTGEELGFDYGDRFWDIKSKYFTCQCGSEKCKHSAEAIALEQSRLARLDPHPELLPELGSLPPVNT
How it was run: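 G9a (20 nM) was preincubated 15 min with compound, then reacted 2 h at room temperature with 500 nM biotin-H3K9 peptide and 20 µM SAM. Monomethyl-H3K9 detected by AlphaScreen using anti-H3K9me1 antibody.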
% is set by controls: 0 for no effect and ±100 for the full control effect; potency is the fitted concentration of half-maximal effect; tags give direction and shape of the fitted curve.

Row | Structure (SMILES) | Potency | activity, negative = inhibition
1 | OC1(c2ccc(Cl)cc2)CCN(Cc2cn[nH]c2-c2ccc(F)cc2)CC1 | inconclusive: 89.1 µM [inhibitor, partial curve, poor fit] | 
2 | Cc1ccc(NC(=O)c2oc3c(c2C)-c2[nH]ncc2CC3)c(Cl)c1 | inconclusive: 31.6 µM [inhibitor, single point] | 
3 | CCOc1ccc(C(=O)c2ccccc2C(=O)O)cc1OCC | inconclusive: 89.1 µM [inhibitor, single point] | 
4 | CSc1ccccc1C(=O)NCCOc1ccccc1C | inconclusive: 50.1 µM [inhibitor, partial curve] | 
5 | O=C1C/C(=C/NCc2ccccc2)C(=O)N1 | inconclusive: 39.8 µM [inhibitor, partial curve, poor fit] | 
6 | COc1ccc(OC)c(NC(=O)c2csc(Cl)c2OC)c1 | inactive | 
7 | Cc1ccn2c(=O)nc(SCC(=O)Nc3ccc4c(c3)OCCO4)nc2c1 | inactive | 
8 | Cc1ccc(NC2CC(=O)N(c3cccc([N+](=O)[O-])c3)C2=O)cc1 (configuration not stated) | inconclusive: 11.2 µM [inhibitor, partial curve] | 
9 | Cc1sc2nc(CN3CCCC3)nc(Cl)c2c1C | inconclusive: 25.1 µM [inhibitor, single point] | 
10 | CC(C)(Cc1ccccc1)NC(=O)C(=O)c1cn(CC(=O)N2CCOCC2)c2ccccc12 | inconclusive: 39.8 µM [inhibitor, partial curve] | 
11 | O=S(=O)(Oc1ccccc1/C=N/n1cnnc1)c1ccccc1 | inconclusive: 70.8 µM [inhibitor, single point] | 
12 | Cc1cc(C(=O)COC(=O)Cn2c(C(F)(F)F)nc3ccccc32)c(C)n1Cc1ccco1 | inconclusive: 39.8 µM [inhibitor, single point] | 
13 | Cc1ccc(N2C(=O)C(Cl)=C(N3CCOCC3)C2=O)cc1Cl | inactive | 
14 | Cc1ccc2[nH]c(=O)c(CN(CCCN(C)C)C(=O)Nc3cccc(Cl)c3)cc2c1 | inactive | 
15 | NNC(=O)CP(=O)(c1ccccc1)c1ccccc1 | inactive | 
16 | C=CCC(COCc1ccccc1)NS(=O)(=O)c1ccccc1Br (configuration not stated) |  | inconclusive: -74.6% [inhibitor]
17 | COc1ccc(-c2c(C)nn3c(N4CCCCCC4)cc(C)nc23)cc1OC | inconclusive: 89.1 µM [inhibitor, single point] | 
18 | S=c1[nH]nc(-c2cccs2)n1/N=C/c1cn(-c2ccccc2)nc1-c1ccc(Cl)cc1 | inconclusive: 22.4 µM [inhibitor, single point] | 
19 | COc1ccccc1Nc1nc(N)nc(CN(C)C2CCCCC2)n1 | inconclusive: 31.6 µM [inhibitor, single point] | 
20 | O=C(N/C(=C/c1ccc(Cl)cc1)C(=O)N1CCOCC1)c1ccccc1 |  | inactive: -8.57% [at 12.7 µM]
21 | COc1ccc(CCN(C)C/C=C/c2ccccc2)cc1OC | active: 50.1 µM | 
22 | CC(=O)Nc1ccc(OCC(=O)NCc2ccc(C)cc2)cc1 | inactive | 
23 | CC(C)CC(=O)NC(=S)Nc1cc(C(F)(F)F)ccc1N1CCOCC1 | active: 79.4 µM | 
24 | COc1ccccc1N(C)S(=O)(=O)c1ccc(C)c(C(=O)N2CCCCCC2)c1 | inactive | 

Row | Structure (SMILES) | Potency | activity, negative = inhibition
25 | O=C1c2ccccc2CN1Cc1ccccc1 | inconclusive: 1 µM [inhibitor, single point] | 
26 | Cc1cc(C)c(S(=O)(=O)N2CCCOC2CNC(=O)C(=O)NCCc2c[nH]c3ccccc23)c(C)c1 (configuration not stated) | inconclusive: 25.1 µM [inhibitor, single point] | 
27 | C/C(O)=C\c1nc2ccccc2oc1=O | inconclusive: 89.1 µM [inhibitor, single point] | 
28 | CN1CCN(/N=C/c2c3ccccc3c(Cl)c3ccccc23)CC1 | active: 35.5 µM | 
29 | CCCN1C(=O)C(O)(CC(=O)c2ccc(C(C)C)cc2)c2ccccc21 (configuration not stated) | inactive | 
30 | O=C(c1ccccn1)c1ccc2ccccc2n1 |  | inconclusive: -70% [inhibitor]
31 | O=C(NCCc1c[nH]c2ccccc12)c1cnc2n(c1=O)CCS2 | inconclusive: 25.1 µM [inhibitor, single point] | 
32 | CSc1cccc(NC(=O)CN(Cc2ccc(Cl)cc2)S(C)(=O)=O)c1 | inconclusive: 89.1 µM [inhibitor, single point] | 
33 | O=C(Nc1ccc(Oc2ccccc2)nc1)C1CCCCN1Cc1ccc(OCCO)cc1 (configuration not stated) | inconclusive: 79.4 µM [inhibitor, single point] | 
34 | CC(C)C(=O)Nc1cccc(C(=O)Nc2cc([N+](=O)[O-])ccc2F)c1 | inconclusive: 89.1 µM [inhibitor, partial curve, poor fit] | 
35 | CC(C)NC(=O)c1ccc2c(c1)N(Cc1cccc(Cl)c1)C(=O)c1ccccc1S2=O (configuration not stated) | inactive | 
36 | CSc1ccccc1OCc1cc(C(=O)N2CCN(Cc3nccn3C)CC2)no1 | inactive | 
37 | CCc1cccc(NC(=O)CCc2c(C)nc3c(-c4ccccc4)c(C)nn3c2C)c1 | inactive | 
38 | CCOc1ccc(C(=S)NC2CCCCC2)cc1 | active: 10 µM | 
39 | O=C(Nc1ccc2nc(-c3ccco3)[nH]c2c1)c1ccco1 | active: 70.8 µM | 
40 | COc1ccc(N(C(=O)c2ccc(Cl)cc2)C2=CC3CCC(C2)N3C)cc1 (configuration not stated) | inconclusive: 89.1 µM [inhibitor, single point] | 
41 | O=c1c2ccccc2cnn1Cc1ccc(Cl)c(Cl)c1 | inactive | 
42 | O=C1NC(Nc2nccs2)(C(F)(F)F)C(=O)N1CCc1ccccc1 (configuration not stated) | inconclusive: 50.1 µM [inhibitor, partial curve] | 
43 | COc1ccc(-c2csc(Nc3cccnc3)n2)cc1OC | active: 50.1 µM | 
44 | COc1ccc(N2CCN(C(=O)CN(c3ccccc3)S(=O)(=O)c3ccc(OC)cc3)CC2)cc1 | active: 10 µM | 
45 | Cc1c(C(=O)N2CCN(c3ccccc3F)CC2)sc2nc(-c3ccccc3)cn12 | inconclusive: 50.1 µM [inhibitor, partial curve, poor fit] | 
46 | CCN1CCN(c2ccc(NC(=O)CCc3c(C)nc4c(-c5ccc(F)cc5)c(C)nn4c3C)cc2)CC1 | inconclusive: 44.7 µM [inhibitor, partial curve, poor fit] | 
47 | Cc1ccnc(NS(=O)(=O)c2ccc(NC(=O)C3CCCCC3)cc2)n1 | inconclusive: 89.1 µM [inhibitor, single point] | 

Reference: PubChem BioAssay AID504332 (National Center for Advancing Translational Sciences (NCATS), 2011)
